Some of the results follow.
The sequences below were run on PfAP2-HC AP2 domain (GST-tagged) (assay: gcPBM binding intensity (ln(normalized median fluorescence intensity)); higher = stronger DNA binding).
Summary of the method: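 DNA-binding domains from P. falciparum, fused to GST and produced in E. coli, were put on an Agilent 4 × 180k double-stranded probe array for 1 h in 1× PBS holding 1% milk, 0.2 mg/ml BSA, 0.5% salmon testes DNA and 0.03% Triton X-100. Probes were primer-extended, 36 bp long and drawn from intergenic genomic regions, with negative controls included. After Alexa488 anti-GST antibody detection and a 488 nm scan, binding intensity was set as the highest Masliner-normalised natural-log median intensity across replicate spots of either probe orientation.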

First: AAAAATCATATAGGTTGTACGGGTAGTTTATTTTAT [XGTACX_site6936]
Second: TTATTATATAAAGTTTCACACATTATTTGTTCAAAC [CACACA_site5218]
The “gcPBM binding intensity (ln)” value of the first is higher: 9.79 for the first, 9.64 for the second.

Compared with “ATATGAAGTATCGAATTAAGGGCAACAAATAAATTA [CACACA_negctrl_site1116]”, “AATATAAGCAAATACACACACACATATAAATATGTA [CACACA_site7741]” is higher in “gcPBM binding intensity (ln)” value: 9.66 for the first, 10.8 for the second.

First: TACATATATAAATATGTACACACATATGTATGATCT [CACACA_site9284]
Second: AAAAAAATAATATAAATAATGAAAAGATATAAATAA [GTGCAC_negctrl_site432]
The “gcPBM binding intensity (ln)” value of the first is higher: 9.83 for the first, 9.72 for the second.

Compared with “TTATATATGACTAACGGTTTTTTTTTTTTTTTTTTT [CACACA_negctrl_site576]”, “AGTAGTCTGGAGAAGAGTACACAGTATCTGGTAACA [XGTACX_site2032]” is lower in “gcPBM binding intensity (ln)” value: 9.54 for the first, 9.49 for the second.

First: TAATATCAATTTTTATGTACTTATATATATATATAT [XGTACX_site5879]
Second: ATTGAGAGAAAAAAATGTACTTGATCAAAATGGATA [XGTACX_site1649]
The “gcPBM binding intensity (ln)” value of the first is higher: 9.77 for the first, 9.66 for the second.

Compared with “CGCACCCACAGACACACACACACATATATATATATA [CACACA_site2202]”, “AATATATATTAAATATGTACTTATTTTTTGGTTGCT [XGTACX_site3613]” is lower in “gcPBM binding intensity (ln)” value: 11.4 for the first, 9.63 for the second.

Going from “TACATACAGAAACACACACACACATATATATATATA [CACACA_site2919]” to “AAAGAATAATTAAATACACACATATTACAGTAAAAA [CACACA_site2450]”, the “gcPBM binding intensity (ln)” value falls from 11.1 to 10.1.

Compared with “ACAAAAAAAAAAAAAAAAAAAAAAAAAAAATAATAA [CACACA_negctrl_site1640]”, “AGATCAATAATGACAAGTACACAAAATAACATTTAA [XGTACX_site6968]” is higher in “gcPBM binding intensity (ln)” value: 9.18 for the first, 9.85 for the second.

Compared with “AAAATATATTAAGGCACACACATACATATTTATATA [CACACA_site7707]”, “ATTTTGTAAAAGGTCATACACACATATTCAAAAGAA [CACACA_site2946]” is lower in “gcPBM binding intensity (ln)” value: 10.2 for the first, 9.85 for the second.

Compared with “TGTACAGTATATACAACACACATTTGTATAAATATA [CACACA_site1002]”, “TGTACACCCAGAAATGCACACACATATATATATATA [CACACA_site8716]” is lower in “gcPBM binding intensity (ln)” value: 10.2 for the first, 9.93 for the second.

Going from “TGCATAATTAAAAATGGTACACTGTATTTATAATAT [XGTACX_site1575]” to “TATAAATTAAGATAACGTACATATAATAATATAAAC [XGTACX_site487]”, the “gcPBM binding intensity (ln)” value rises from 9.61 to 9.87.

First: TATATATATTTTATGTGTACTCAATGTTATAACGCA [XGTACX_site8360]
Second: AATAGAGTTGAATGCACACATACAAATTTTTAGTTT [CACACA_site3564]
The “gcPBM binding intensity (ln)” value of the first is lower: 9.57 for the first, 9.9 for the second.

Compared with “GTTTCTACTTATATAACAGGACACGTGTGAATAATT [TGCATGCA_negctrl_site430]”, “TTGAAGGTGGCAATGTGTACATAGAATAACCAGTGC [XGTACX_site4738]” is lower in “gcPBM binding intensity (ln)” value: 9.84 for the first, 9.82 for the second.

Compared with “ACAATTGCATCTATCACACATACATACATACATACA [CACACA_site5063]”, “AAAAAAAAAAAACATTGTACGCACATTTTATATGTC [XGTACX_site6974]” is lower in “gcPBM binding intensity (ln)” value: 9.94 for the first, 9.69 for the second.

Compared with “AAAAAAATACATACGTGTACCCACATATATGTATCT [XGTACX_site5319]”, “AATAAAAATAAAAGCACACATAAATATATATATATT [CACACA_site1441]” is higher in “gcPBM binding intensity (ln)” value: 9.75 for the first, 9.95 for the second.

First: TCATGGCCATTTTCAGTGCATATGTGTATTTAATAT [GTGCAC_site9529]
Second: GCAAGTCCATGAACGGTGCAGGAATTAACAAAAATA
The “gcPBM binding intensity (ln)” value of the first is higher: 9.74 for the first, 9.5 for the second.

“TATAATGATGATGATAGTACGTATTAGTATAAAAAA [XGTACX_site9]” and “TCATGGGTGTATTTCACACACGGATAATCATTTATA [CACACA_site4663]” are the same in “gcPBM binding intensity (ln)” value: 9.79 for the first, 9.79 for the second.

First: AGAAATAAAAAAAAAAATATATATATTATATATATA [CACACA_negctrl_site1799]
Second: ATATTTTTTTTTGTTACACACGTTTTTTAAAAAATG [CACACA_site1603]
The “gcPBM binding intensity (ln)” value of the first is lower: 9.47 for the first, 9.78 for the second.

Compared with “TCATAAAAATAAAAATGTACACATTAGAAATATTGT [XGTACX_site3671]”, “TTATAATTTTTCTATTGTACATTTAATAATATATAT [XGTACX_site7326]” is lower in “gcPBM binding intensity (ln)” value: 9.78 for the first, 9.5 for the second.

First: TTATACATATTTATATGTACGTAATATAATATTAAT [XGTACX_site6520]
Second: ATGAAGAAATAAATGTGTACATATCTTAGTATCATA [XGTACX_site8658]
The “gcPBM binding intensity (ln)” value of the first is lower: 9.55 for the first, 9.79 for the second.

First: TATTTAATTTATACACGTACATATATAAATAATACA [XGTACX_site1148]
Second: TATAAATATCTGTATGCACACATTTTTTTTGGAAAA [CACACA_site4734]
The “gcPBM binding intensity (ln)” value of the first is lower: 9.49 for the first, 9.64 for the second.

Compared with “TCAACAAAATTGAAGGAACACACATACATATATATA [CACACA_site7940]”, “ATTTTTTCTCATAAAAACGTGAACGTTTATTTTACA [CACACA_negctrl_site1041]” is lower in “gcPBM binding intensity (ln)” value: 9.85 for the first, 9.59 for the second.

Going from “ATTATAAAAGAATTTTTTTTTATTTCATTAAAATAT [CACACA_negctrl_site1137]” to “AGCACATAAATAATTAAACACACATTGTTCTAGACA [CACACA_site8746]”, the “gcPBM binding intensity (ln)” value rises from 9.08 to 9.78.

First: TTACTATAAAATGTCACACATTCTGTTTCCTTACTT [CACACA_site5714]
Second: AACGATTTACATCACTGTACTAATGATATACCTCAT [XGTACX_site7463]
The “gcPBM binding intensity (ln)” value of the first is lower: 9.78 for the first, 9.85 for the second.

Compared with “TATATATATATATATTGTACTATATAGTATCTTTTT [XGTACX_site1646]”, “TATATATTTTCTTTTGCACACTGTTTTCCTTTTTTT [CACACA_site2739]” is higher in “gcPBM binding intensity (ln)” value: 9.78 for the first, 10 for the second.

Going from TACCCTTGCATGTAGGTGCAATTTTTTTTTTTTTTT to “TTCGTAATTTATATCACACACATATATATATAATAA [CACACA_site3115]”, the “gcPBM binding intensity (ln)” value rises from 9.64 to 9.85.

First: CAACTTTATACATATAGTACAAGTTATATTTTATTA [XGTACX_site6651]
Second: TAATAATAGTACTGACATCAAAATCTTATTAAAAAT [GTGCAC_negctrl_site308]
The “gcPBM binding intensity (ln)” value of the first is lower: 9.54 for the first, 9.58 for the second.

First: TTCTTTTTTATTTTTCAACACACATAATAAATTTCT [CACACA_site8253]
Second: CTTTCCATATATGATAGTACACGATAAAAAAAAAAA [XGTACX_site5772]
The “gcPBM binding intensity (ln)” value of the first is higher: 9.85 for the first, 9.34 for the second.
